# Experimental data from paper PMC5892938.
# The list shows a part of the results. At the low end of the ranking the order means little.
# Target: GST-SBP-SLBP (stem-loop binding protein) (UniProt Q14493)
# Assay: targeted RNA Bind-n-Seq;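 further: DESeq read counts versus GST-SBP nonspecific binding control pulldown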
# Conditions: RBNS binding buffer: 25 mM Tris pH 7.5, 150 mM KCl, 3 mM MgCl2, 0.1% Tween, 0.5 mg/mL BSA, 1 mM DTT; 27 nM protein, 750 pM RNA pool; temperature not stated; high values mean tight binding
row,Sequence,binding signal (log2 fold change)
1,GGUCACGUCUCAAUCAACUCCUUAGAGGGGGGGAAAACCCCUUUGCCCUCAUCCUCAACAGCUCGCAGUCAAG,0.0243
2,GGUCACGUCUCAAUCAACUCAAUUCCCAGGGAAAUCCCUGGCAAACUCAACAGCUCGCAGUCAAG,-0.103
3,GGUCACGUCUCAAUCAACUCAAUCCCAGGAGUUUUCUCCUGCAUUUUCAACAGCUCGCAGUCAAG,0.0807
4,GGUCACGUCUCAAUCAACUCUUCCCCAGGAGUUUCCUCCUGUUUAUUCAACAGCUCGCAGUCAAG,0.23
5,GGUCACGUCUCAAUCAACUCUUCUUCAGGAGUUUUCUCCUGCAAAUUCAACAGCUCGCAGUCAAG,-0.0994
6,GGUCACGUCUCAAUCAACUCUAGUCCCAGGGAAAUCCCUGGUUAUUUCAACAGCUCGCAGUCAAG,-0.398
7,GGUCACGUCUCAAUCAACUCAUCCUCCAGGGAAACCCCUGGUUUACUCAACAGCUCGCAGUCAAG,-0.00428
8,GGUCACGUCUCAAUCAACUCAGUCUCCAGGGAAAUCCCUGGCUAAUUCAACAGCUCGCAGUCAAG,-0.416
9,GGUCACGUCUCAAUCAACUCUUUCUCAGGAGUUUCCUCCUGUAAACUCAACAGCUCGCAGUCAAG,-0.0726
10,GGUCACGUCUCAAUCAACUCAUUUUCCAGGGAAAACCCUGGCUAUUUCAACAGCUCGCAGUCAAG,0.00134
11,GGUCACGUCUCAAUCAACUCAAUAGAGGGGGGGAAAACCCCUUUACCCUCGUCUUCAACAGCUCGCAGUCAAG,-0.00387
12,GGUCACGUCUCAAUCAACUCAUACGAGGGGGGGAAAACCCCUUUACCCUCCAUUUCAACAGCUCGCAGUCAAG,-0.225
13,GGUCACGUCUCAAUCAACUCUUUCCCAGGAGUUUUCUCCUGCUUUCUCAACAGCUCGCAGUCAAG,0.00375
14,GGUCACGUCUCAAUCAACUCAUCGUCAGGAGUUUUCUCCUGCUUAUUCAACAGCUCGCAGUCAAG,-0.0928
15,GGUCACGUCUCAAUCAACUCUACUCCAGGAGUUUCCUCCUGUUAUUUCAACAGCUCGCAGUCAAG,0.0956
16,GGUCACGUCUCAAUCAACUCAGUUCCCAGGGAAACCCCUGGCUUAUUCAACAGCUCGCAGUCAAG,-0.418
17,GGUCACGUCUCAAUCAACUCUAUAGAGGGGGGGAAAACCCCUUUACCCUCGUCAUCAACAGCUCGCAGUCAAG,-0.538
18,GGUCACGUCUCAAUCAACUCUUCCCCCAGGGAAAACCCUGGUUAAUUCAACAGCUCGCAGUCAAG,0.0968
19,GGUCACGUCUCAAUCAACUCAUCCCCCAGGGAAAGCCCUGGUUAUUUCAACAGCUCGCAGUCAAG,0.061
20,GGUCACGUCUCAAUCAACUCAAUAGAGGGGGGGAAAACCCCUUUGCCCUCACCUUCAACAGCUCGCAGUCAAG,-0.204
21,GGUCACGUCUCAAUCAACUCAUCUCCAGGAGUUUACUCCUGCUUAUUCAACAGCUCGCAGUCAAG,-0.0718
22,GGUCACGUCUCAAUCAACUCAACUCCAGGAGUUUCCUCCUGUAAUCUCAACAGCUCGCAGUCAAG,0.0408
23,GGUCACGUCUCAAUCAACUCUAUUCCAGGAGUUUACUCCUGCAUUCUCAACAGCUCGCAGUCAAG,0.124
24,GGUCACGUCUCAAUCAACUCUAUCUCAGGAGUUUUCUCCUGCAAACUCAACAGCUCGCAGUCAAG,0.0491

row,Sequence,binding signal (log2 fold change)
1,GGUCACGUCUCAAUCAACUCAACUCCCAGGGAAAGCCCUGGCAUAUUCAACAGCUCGCAGUCAAG,-0.159
2,GGUCACGUCUCAAUCAACUCUAUUUCCAGGGAAAACCCUGGCUUUCUCAACAGCUCGCAGUCAAG,-0.0657
3,GGUCACGUCUCAAUCAACUCUUUCUCAGGAGUUUUCUCCUGCUUAUUCAACAGCUCGCAGUCAAG,-0.0855
4,GGUCACGUCUCAAUCAACUCUAUCCCAGGAGUUUACUCCUGUUUACUCAACAGCUCGCAGUCAAG,-0.0195
5,GGUCACGUCUCAAUCAACUCAUUUCCAGGAGUUUCCUCCUGUAUUUUCAACAGCUCGCAGUCAAG,0.131
6,GGUCACGUCUCAAUCAACUCAACUUCCAGGGAAACCCCUGGUAAAUUCAACAGCUCGCAGUCAAG,-0.181
7,GGUCACGUCUCAAUCAACUCUUCUCCCAGGGAAAUCCCUGGCUUACUCAACAGCUCGCAGUCAAG,0.219
8,GGUCACGUCUCAAUCAACUCUAUUCCCAGGGAAAUCCCUGGCUAUUUCAACAGCUCGCAGUCAAG,-0.172
9,GGUCACGUCUCAAUCAACUCAGUCUCAGGAGUUUUCUCCUGUAUUUUCAACAGCUCGCAGUCAAG,-0.133
10,GGUCACGUCUCAAUCAACUCUAACGAGGGGGGGAAAACCCCUUUACCCUCAUACUCAACAGCUCGCAGUCAAG,0.0444
11,GGUCACGUCUCAAUCAACUCAUUUCCCAGGGAAACCCCUGGCAUUUUCAACAGCUCGCAGUCAAG,0.0607
12,GGUCACGUCUCAAUCAACUCUUUUCCAGGAGUUUACUCCUGCUUAUUCAACAGCUCGCAGUCAAG,-0.178
13,GGUCACGUCUCAAUCAACUCUAUUCCAGGAGUUUCCUCCUGUUUACUCAACAGCUCGCAGUCAAG,-0.0573
14,GGUCACGUCUCAAUCAACUCACAAGAGGGGGGGAAAACCCCUUUACCCUCAAUUUCAACAGCUCGCAGUCAAG,-0.115
15,GGUCACGUCUCAAUCAACUCAACUUCAGGAGUUUACUCCUGUUUACUCAACAGCUCGCAGUCAAG,0.0839
16,GGUCACGUCUCAAUCAACUCAGAAGAGGGGGGGAAAACCCCUUUGCCCUCAAUAUCAACAGCUCGCAGUCAAG,-0.0258
17,GGUCACGUCUCAAUCAACUCAUCCUCCAGGGAAACCCCUGGUUAUCUCAACAGCUCGCAGUCAAG,0.107
18,GGUCACGUCUCAAUCAACUCAUCUUCAGGAGUUUGCUCCUGCUAACUCAACAGCUCGCAGUCAAG,0.185
19,GGUCACGUCUCAAUCAACUCUUCUUCAGGAGUUUACUCCUGUAUUUUCAACAGCUCGCAGUCAAG,-0.0895
20,GGUCACGUCUCAAUCAACUCAAUGGAGGGGGGGAAAACCCCUUUACCCUCAAUAUCAACAGCUCGCAGUCAAG,-0.286
21,GGUCACGUCUCAAUCAACUCUAUUCCCAGGGAAAUCCCUGGUUAACUCAACAGCUCGCAGUCAAG,-0.138
22,GGUCACGUCUCAAUCAACUCUUCCUCAGGAGUUUCCUCCUGUUUACUCAACAGCUCGCAGUCAAG,-0.0449
23,GGUCACGUCUCAAUCAACUCUUCCCCCAGGGAAAGCCCUGGUUAACUCAACAGCUCGCAGUCAAG,-0.0275
